Target: N-terminal truncated recombinant human PDE7B enzyme (Homo sapiens (Human), UniProt Q9NP56)
Assay: biochemical

Structure (SMILES)	IC50
COC(=O)CN(C)C(=O)c1nc2cc(Cl)c3c(c2o1)C1(CCCCC1)NC(=O)N3 [Example 191, methyl 2-{1-5-chloro-7-oxo-7,8-dihydro-6H-spiro[[1,3]oxazolo[5,4-f]quinazoline-9,1′-cyclohexane]-2-yl-N-methylformamido}acetate]	10 to 100 nM
O=C1Nc2c(Cl)cc3cc(CN4CCN(CCO)CC4)oc3c2C2(CCCCC2)N1 [Example 487, 5′-Chloro-2′-{[4-(2-hydroxyethyl)piperazin-1-yl]methyl}-7′,8′-dihydro-6′H-spiro[cyclohexane-1,9′-furo[2,3-f]quinazoline]-7′-one]	100 to 1000 nM
Cc1nn(C)c(C)c1CCCN(C)C(=O)c1cc2cc(Cl)c3c(c2o1)C1(CCCCC1)NC(=O)N3 [Example 296, 5′-Chloro-N-methyl-7′-oxo-N-[3-(trimethyl-1H-pyrazol-4-yl)propyl]-7′,8′-dihydro-6′H-spiro[cyclohexane-1,9′-furo[2,3-f]quinazoline]-2′-carboxamide]	10 to 100 nM
O=C1Nc2c(Cl)cc3cc(C(=O)NC4CCN(Cc5ccccc5)C4)oc3c2C2(CCCCC2)N1 (centres unmarked) [Example 301, N-(1-benzylpyrrolidin-3-yl)-5′-chloro-7′-oxo-7′,8′-dihydro-6′H-spiro[cyclohexane-1,9′-furo[2,3-f]quinazoline]-2′-carboxamide]	10 to 100 nM
Cc1cc(C)n(CCCN(C)C(=O)c2cc3cc(Cl)c4c(c3o2)C2(CCCCC2)NC(=O)N4)n1 [Example 312, 5′-Chloro-N-[3-(3,5-dimethyl-1H-pyrazol-1-yl)propyl]-N-methyl-7′-oxo-7′,8′-dihydro-6′H-spiro[cyclohexane-1,9′-furo[2,3-f]quinazoline]-2′-carboxamide]	10 to 100 nM
COCC1CN(Cc2nc3cc(Cl)c4c(c3o2)C2(CCCCC2)NC(=O)N4)C1 [Example 75, 5-Chloro-2-{[3-(methoxymethyl)azetidin-1-yl]methyl}-7,8-dihydro-6H-spiro[[1,3]oxazolo[5,4-f]quinazoline-9,1′-cyclohexane]-7-one]	10 to 100 nM
O=C1Nc2c(Cl)cc3cc(C(=O)N4CCC(N5CCOCC5)CC4)oc3c2C2(CCCCC2)N1 [Example 453, 5′-Chloro-2′-[4-(morpholin-4-yl)piperidine-1-carbonyl]-7′,8′-dihydro-6′H-spiro[cyclohexane-1,9′-furo[2,3-f]quinazoline]-7′-one]	10 to 100 nM
CN(Cc1nc2cc(Cl)c3c(c2o1)C1(CCCCC1)NC(=O)N3)CC(F)(F)F [Example 88, 5-Chloro-2-{[methyl(2,2,2-trifluoroethyl)amino]methyl}-7,8-dihydro-6H-spiro[[1,3]oxazolo[5,4-f]quinazoline-9,1′-cyclohexane]-7-one]	10 to 100 nM
CCC1COCCN1Cc1nc2cc(Cl)c3c(c2o1)C1(CCCCC1)NC(=O)N3 (centres unmarked) [Example 101, 5-Chloro-2-[(3-ethylmorpholin-4-yl)methyl]-7,8-dihydro-6H-spiro[[1,3]oxazolo[5,4-f]quinazoline-9,1′-cyclohexane]-7-one]	100 to 1000 nM
O=C1Nc2c(Cl)cc3cc(CN4CCOCC4)oc3c2C2(CCCCC2)N1 [Example 242, 5′-Chloro-2′-(morpholin-4-ylmethyl)-7′,8′-dihydro-6′H-spiro[cyclohexane-1,9′-furo[2,3-f]quinazoline]-7′-one]	10 to 100 nM
COC1CN(Cc2nc3cc(Cl)c4c(c3o2)C2(CCCCC2)NC(=O)N4)C1 [Example 74, 5-Chloro-2-[(3-methoxyazetidin-1-yl)methyl]-7,8-dihydro-6H-spiro[[1,3]oxazolo[5,4-f]quinazoline-9,1′-cyclohexane]-7-one]	10 to 100 nM
CN(C(=O)c1nc2cc(Cl)c3c(c2o1)C1(CCCCC1)NC(=O)N3)C1CCOCC1 [Example 198, 5-Chloro-N-methyl-N-(oxan-4-yl)-7-oxo-7,8-dihydro-6H-spiro[[1,3]oxazolo[5,4-f]quinazoline-9,1′-cyclohexane]-2-carboxamide]	10 to 100 nM
C[C@@H]1CN(C(=O)c2cc3cc(Cl)c4c(c3o2)C2(CCCCC2)NC(=O)N4)C[C@H](C)O1 [Example 424, 5′-Chloro-2′-[(2R,6S)-2,6-dimethylmorpholine-4-carbonyl]-7′,8′-dihydro-6′H-spiro[cyclohexane-1,9′-furo[2,3-f]quinazoline]-7′-one]	10 to 100 nM
CCN1CCN(C(=O)c2cc3cc(Cl)c4c(c3o2)C2(CCCCC2)NC(=O)N4)CC1 [Example 231, 5′-Chloro-2′-(4-ethylpiperazine-1-carbonyl)-7′,8′-dihydro-6′H-spiro[cyclohexane-1,9′-furo[2,3-f]quinazoline]-7′-one]	10 to 100 nM
O=C1Nc2c(Cl)cc3cc(C(=O)N4CCN(C5COC5)CC4)oc3c2C2(CCCCC2)N1 [Example 335, 5′-Chloro-2′-[4-(oxetan-3-yl)piperazine-1-carbonyl]-7′,8′-dihydro-6′H-spiro[cyclohexane-1,9′-furo[2,3-f]quinazoline]-7′-one]	10 to 100 nM
O=C1Nc2c(Cl)cc3nc(CNC[C@@H]4CCOC4)oc3c2C2(CCCCC2)N1 [Example 167, 5-Chloro-2-({[(3S)-oxolan-3-ylmethyl]amino}methyl)-7,8-dihydro-6H-spiro[[1,3]oxazolo[5,4-f]quinazoline-9,1′-cyclohexane]-7-one]	10 to 100 nM
O=C1Nc2c(Cl)cc3cc(C(=O)NCCCO)oc3c2C2(CCCCC2)N1 [Example 256, 5′-Chloro-N-(3-hydroxypropyl)-7′-oxo-7′,8′-dihydro-6′H-spiro[cyclohexane-1,9′-furo[2,3-f]quinazoline]-2′-carboxamide]	10 to 100 nM
O=C1Nc2c(Cl)cc3nc(CN4CCC(O)(C(F)(F)F)CC4)oc3c2C2(CCCCC2)N1 [Example 71, 5-Chloro-2-{[4-hydroxy-4-(trifluoromethyl)piperidin-1-yl]methyl}-7,8-dihydro-6H-spiro[[1,3]oxazolo[5,4-f]quinazoline-9,1′-cyclohexane]-7-one]	10 to 100 nM
CCC(CC)NC(=O)c1cc2cc(Cl)c3c(c2o1)C1(CCCCC1)NC(=O)N3 [Example 421, 5′-Chloro-7′-oxo-N-(pentan-3-yl)-7′,8′-dihydro-6′H-spiro[cyclohexane-1,9′-furo[2,3-f]quinazoline]-2′-carboxamide]	10 to 100 nM
CN1CCN(Cc2nc3cc(Cl)c4c(c3o2)C2(CCCCC2)NC(=O)N4)CC1 [Example 32, 5-Chloro-2-[(4-methylpiperazin-1-yl)methyl]-7,8-dihydro-6H-spiro[[1,3]oxazolo[5,4-f]quinazoline-9,1′-cyclohexane]-7-one]	100 to 1000 nM
CS(=O)(=O)N1CCN(Cc2cc3cc(Cl)c4c(c3o2)C2(CCCCC2)NC(=O)N4)CC1 [Example 524, 5′-Chloro-2′-[(4-methanesulfonylpiperazin-1-yl)methyl]-7′,8′-dihydro-6′H-spiro[cyclohexane-1,9′-furo[2,3-f]quinazoline]-7′-one]	100 to 1000 nM
O=C1Nc2c(Cl)cc3cc(C(=O)N4CCC(O)(c5ccccc5)CC4)oc3c2C2(CCCCC2)N1 [Example 441, 5′-Chloro-2′-(4-hydroxy-4-phenylpiperidine-1-carbonyl)-7′,8′-dihydro-6′H-spiro[cyclohexane-1,9′-furo[2,3-f]quinazoline]-7′-one]	10 to 100 nM
O=C1Nc2c(Cl)cc3nc(CNCC4CCCCN4)oc3c2C2(CCCCC2)N1 (centres unmarked) [Example 54, 5-Chloro-2-{[(piperidin-2-ylmethyl)amino]methyl}-7,8-dihydro-6H-spiro[[1,3]oxazolo[5,4-f]quinazoline-9,1′-cyclohexane]-7-one]	10 to 100 nM

From US11685745B2, “Substituted benzoxazole and benzofuran compounds as PDE7 inhibitors” (Dart NeuroScience, LLC, priority 2017, dated 2023)
